The list shows a part of the results.
What was measured:
HSkMC = human skeletal muscle cells; assay: cytotoxicity call (relative viability < 0.9); conditions: 10 µM
HepG2 = assay: cytotoxicity call (relative viability < 0.9); conditions: 10 µM
S. aureus RN4220 = assay: growth inhibition call (relative growth <= 0.2); conditions: 50 µM

For C[C@@H]1CN([C@@H](C)CO)C(=O)Cc2cc(NS(=O)(=O)c3ccccc3)ccc2O[C@@H]1CN(C)S(=O)(=O)c1cccs1, the cytotoxicity call (HSkMC) was “inactive”, the cytotoxicity call (HepG2) was “inactive” and the growth inhibition call (S. aureus RN4220) was “inactive”.
With CC(C)(C)[S@@](=O)N1Cc2cc(C(=O)N3CCCCC3)nc(-c3cccc(-c4ccccc4F)c3)c2[C@H]1CCO the cytotoxicity call (HSkMC) was “inactive”, the cytotoxicity call (HepG2) was “inactive” and the growth inhibition call (S. aureus RN4220) was “inactive”.
Cc1noc(C)c1S(=O)(=O)Nc1ccc2c(c1)C(=O)N([C@@H](C)CO)C[C@H](C)[C@H](CN(C)C)OCCCC[C@@H](C)O2 was tested, and the cytotoxicity call (HSkMC) was “inactive”, the cytotoxicity call (HepG2) was “inactive” and the growth inhibition call (S. aureus RN4220) was “inactive”.
In the case of C[C@@H]1CN([C@@H](C)CO)C(=O)c2cc(Br)cnc2O[C@H]1CN(C)S(=O)(=O)c1ccccc1, the cytotoxicity call (HSkMC) was “inactive”, the cytotoxicity call (HepG2) was “inactive” and the growth inhibition call (S. aureus RN4220) was “inactive”.
COc1ccc(-c2oc3cc(O[C@H]4O[C@H](CO)[C@@H](O)[C@H](O)[C@H]4O)c(OC)c(O)c3c(=O)c2OC)cc1O was tested, and the cytotoxicity call (HSkMC) was “inactive”, the cytotoxicity call (HepG2) was “inactive” and the growth inhibition call (S. aureus RN4220) was “inactive”.
In the case of C[C@@H]1CCCCO[C@H](CN(C)C(=O)Nc2ccc(C(F)(F)F)cc2)[C@@H](C)CN([C@@H](C)CO)C(=O)c2cc(NC(=O)c3ccncc3)ccc2O1, the cytotoxicity call (HSkMC) was “inactive”, the cytotoxicity call (HepG2) was “inactive” and the growth inhibition call (S. aureus RN4220) was “inactive”.
In the case of C[C@H](CO)N1C[C@H](C)[C@H](CN(C)C(=O)NC2CCCCC2)Oc2ccc(NC(=O)C3CC3)cc2CC1=O, the cytotoxicity call (HSkMC) was “inactive”, the cytotoxicity call (HepG2) was “inactive” and the growth inhibition call (S. aureus RN4220) was “inactive”.
O=C(C[C@@H]1C[C@@H]2c3cc(NS(=O)(=O)c4ccc(F)cc4)ccc3O[C@@H]2[C@@H](CO)O1)NCc1cccnc1 was tested, and the cytotoxicity call (HSkMC) was “inactive”, the cytotoxicity call (HepG2) was “inactive” and the growth inhibition call (S. aureus RN4220) was “inactive”.
For COc1ccc2c3c(n(c2c1)C)[C@@H](CO)N(CC1CCCCC1)C[C@]13CCN(CC1)Cc1nccs1, the cytotoxicity call (HSkMC) was “inactive”, the cytotoxicity call (HepG2) was “inactive” and the growth inhibition call (S. aureus RN4220) was “inactive”.
For C[C@@H]1CN([C@H](C)CO)C(=O)Cc2cc(NC(=O)Cn3cnnn3)ccc2O[C@@H]1CN(C)Cc1ccccc1, the cytotoxicity call (HSkMC) was “inactive”, the cytotoxicity call (HepG2) was “inactive” and the growth inhibition call (S. aureus RN4220) was “inactive”.
C[C@H](CO)N1C[C@H](C)[C@@H](CN(C)S(C)(=O)=O)Oc2c(NC(=O)c3ccc(-c4nccs4)cc3)cccc2C1=O was tested, and the cytotoxicity call (HSkMC) was “inactive”, the cytotoxicity call (HepG2) was “inactive” and the growth inhibition call (S. aureus RN4220) was “inactive”.
For C[C@@H]1CCCCO[C@@H](CN(C)C(=O)Cc2ccccc2)[C@@H](C)CN([C@@H](C)CO)C(=O)c2cc(NC(=O)C3CCCCC3)ccc2O1, the cytotoxicity call (HSkMC) was “inactive”, the cytotoxicity call (HepG2) was “inactive” and the growth inhibition call (S. aureus RN4220) was “inactive”.
With C[C@H](CO)N1C[C@H](C)[C@@H](CN(C)C(=O)NC2CCCCC2)OCCCC[C@H](C)Oc2ccc(NC(=O)NC3CCCCC3)cc2C1=O the cytotoxicity call (HSkMC) was “inactive”, the cytotoxicity call (HepG2) was “inactive” and the growth inhibition call (S. aureus RN4220) was “inactive”.
In the case of Cc1ccc(S(=O)(=O)Nc2ccc3c(c2)C(=O)N([C@H](C)CO)C[C@@H](C)[C@H](CN(C)Cc2ccc(C(F)(F)F)cc2)OCCCC[C@@H](C)O3)cc1, the cytotoxicity call (HSkMC) was “inactive”, the cytotoxicity call (HepG2) was “active” and the growth inhibition call (S. aureus RN4220) was “inactive”.
In the case of COc1ccc(S(=O)(=O)Nc2ccc3c(c2)C(=O)N([C@H](C)CO)C[C@@H](C)[C@H](CN(C)S(=O)(=O)c2ccc(F)cc2)O3)cc1, the cytotoxicity call (HSkMC) was “inactive”, the cytotoxicity call (HepG2) was “inactive” and the growth inhibition call (S. aureus RN4220) was “inactive”.
Cc1noc(C)c1NC(=O)N(C)C[C@@H]1OCCCC[C@H](C)Oc2ccc(NC(=O)C3CCCCC3)cc2C(=O)N([C@@H](C)CO)C[C@@H]1C was tested, and the cytotoxicity call (HSkMC) was “inactive”, the cytotoxicity call (HepG2) was “inactive” and the growth inhibition call (S. aureus RN4220) was “inactive”.
CC(C)(N)c1ccccc1Br was tested, and the cytotoxicity call (HSkMC) was “inactive”, the cytotoxicity call (HepG2) was “inactive” and the growth inhibition call (S. aureus RN4220) was “inactive”.
In the case of O=C1O[C@H](c2ccccc2)[C@H](c2ccccc2)N2[C@H]1[C@@H](C(=O)N1CCCCCCC1)[C@]1(C(=O)Nc3ccc(C#CC4(O)CCCCCC4)cc31)[C@H]2c1ccccc1OCCO, the cytotoxicity call (HSkMC) was “inactive”, the cytotoxicity call (HepG2) was “inactive” and the growth inhibition call (S. aureus RN4220) was “inactive”.
In the case of Cc1nn(CC(=O)NC(C)C)c(C)c1[N+](=O)[O-], the cytotoxicity call (HSkMC) was “inactive”, the cytotoxicity call (HepG2) was “inactive” and the growth inhibition call (S. aureus RN4220) was “inactive”.
With C[C@@H]1CN([C@@H](C)CO)C(=O)c2cc(NC(=O)Nc3ccc(F)cc3)ccc2O[C@H]1CN(C)Cc1ccc(-c2ccccc2)cc1 the cytotoxicity call (HSkMC) was “active”, the cytotoxicity call (HepG2) was “active” and the growth inhibition call (S. aureus RN4220) was “inactive”.
In the case of C[C@H](NC(=O)N(C)C[C@@H]1OCc2ccccc2-c2ccccc2C(=O)N([C@H](C)CO)C[C@H]1C)c1ccccc1, the cytotoxicity call (HSkMC) was “inactive”, the cytotoxicity call (HepG2) was “inactive” and the growth inhibition call (S. aureus RN4220) was “inactive”.
In the case of Cc1noc(C)c1NC(=O)N[C@H]1CC[C@@H](CC(=O)NCCCN(C)C)O[C@H]1CO, the cytotoxicity call (HSkMC) was “inactive”, the cytotoxicity call (HepG2) was “inactive” and the growth inhibition call (S. aureus RN4220) was “inactive”.
With CN1C(=O)c2cc(NS(=O)(=O)c3ccc(F)cc3)ccc2OC[C@H]2O[C@@H](CC(=O)Nc3cccc4ccccc34)CC[C@@H]21 the cytotoxicity call (HSkMC) was “inactive”, the cytotoxicity call (HepG2) was “inactive” and the growth inhibition call (S. aureus RN4220) was “inactive”.
With C[C@@H]1CCCCO[C@@H](CN(C)C(=O)Nc2ccccc2)[C@@H](C)CN([C@H](C)CO)C(=O)c2cc(NC(=O)c3ccncc3)ccc2O1 the cytotoxicity call (HSkMC) was “inactive”, the cytotoxicity call (HepG2) was “inactive” and the growth inhibition call (S. aureus RN4220) was “inactive”.
